According to publication PMC11183137:
Results are given in words; binding and its absence hold for the method and conditions named. Binding seen in cells or lysates may run through a third protein. Some binding calls cover weakened binding; strength is not graded here. For part of these data: Sequences can lack the tags named with a protein. One block for each molecule: values may come before it.

Chains of the proteins cited; added tags and fusions are not shown.
UniProt O70145: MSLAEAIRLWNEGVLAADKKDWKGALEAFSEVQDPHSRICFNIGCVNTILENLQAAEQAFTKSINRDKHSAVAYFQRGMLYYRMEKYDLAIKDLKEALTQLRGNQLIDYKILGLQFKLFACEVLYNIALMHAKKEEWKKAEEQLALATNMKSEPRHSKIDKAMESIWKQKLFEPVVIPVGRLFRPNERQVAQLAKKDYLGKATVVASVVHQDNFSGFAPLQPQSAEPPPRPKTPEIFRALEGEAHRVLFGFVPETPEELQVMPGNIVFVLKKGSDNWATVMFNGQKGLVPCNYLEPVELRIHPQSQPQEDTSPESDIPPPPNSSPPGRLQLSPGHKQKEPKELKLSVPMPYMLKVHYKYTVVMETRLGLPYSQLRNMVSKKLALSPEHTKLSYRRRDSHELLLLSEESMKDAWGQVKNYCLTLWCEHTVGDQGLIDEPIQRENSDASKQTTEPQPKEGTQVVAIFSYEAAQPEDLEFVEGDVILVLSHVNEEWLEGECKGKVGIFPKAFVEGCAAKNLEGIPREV

How the values were obtained:
[1] = biological target: T1, NCF4 (p40^phox), endogenous in mouse BMDMs (mouse (endogenous in BMDMs)) (UniProt P97369); test: co-IP; endogenous proteins in WT and Asc^–/– BMDMs, untreated, LPS (500 ng/mL) or LPS plus ATP (5 mM, 15 min); IP with anti-ASC, anti-NCF4 or anti-NCF1; IP buffer 50 mM Tris-HCl pH 7.4, 150 mM NaCl, 1% NP-40; immunoblot
T1 sequence: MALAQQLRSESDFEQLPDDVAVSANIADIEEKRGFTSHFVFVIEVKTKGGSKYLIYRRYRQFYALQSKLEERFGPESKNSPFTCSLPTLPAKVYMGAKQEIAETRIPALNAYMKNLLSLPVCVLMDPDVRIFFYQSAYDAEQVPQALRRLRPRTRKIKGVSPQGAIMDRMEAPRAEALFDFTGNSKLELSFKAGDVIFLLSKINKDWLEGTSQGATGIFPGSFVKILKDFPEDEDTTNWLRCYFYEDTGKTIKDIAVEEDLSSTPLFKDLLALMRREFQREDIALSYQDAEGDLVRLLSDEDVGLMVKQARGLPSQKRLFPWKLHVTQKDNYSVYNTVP

[2] = biological target: T2, NCF1 (p47^phox), endogenous in mouse BMDMs (mouse (endogenous in BMDMs)) (UniProt Q09014); test: as above
T2 sequence: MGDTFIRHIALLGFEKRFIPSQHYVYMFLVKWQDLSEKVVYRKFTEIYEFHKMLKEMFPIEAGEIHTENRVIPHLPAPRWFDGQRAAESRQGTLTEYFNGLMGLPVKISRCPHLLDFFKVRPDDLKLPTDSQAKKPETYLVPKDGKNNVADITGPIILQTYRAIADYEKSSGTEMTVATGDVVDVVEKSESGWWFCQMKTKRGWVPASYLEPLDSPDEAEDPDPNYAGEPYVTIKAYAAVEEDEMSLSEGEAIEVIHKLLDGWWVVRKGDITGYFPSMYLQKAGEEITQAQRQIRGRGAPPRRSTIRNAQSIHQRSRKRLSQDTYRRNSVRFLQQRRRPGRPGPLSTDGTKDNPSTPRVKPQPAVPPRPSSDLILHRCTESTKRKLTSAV

[3] = biological target: T3, apoptosis-associated speck-like protein containing a CARD (ASC), endogenous in mouse BMDMs (mouse (endogenous in BMDMs)) (UniProt Q9EPB4); test: as above
T3 sequence: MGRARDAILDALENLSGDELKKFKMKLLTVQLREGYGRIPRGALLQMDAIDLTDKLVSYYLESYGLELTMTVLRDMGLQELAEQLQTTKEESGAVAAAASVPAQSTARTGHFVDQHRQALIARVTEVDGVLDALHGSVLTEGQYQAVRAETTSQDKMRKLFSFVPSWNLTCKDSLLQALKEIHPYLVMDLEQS

V5-ASC (mouse) = biological target: T4, V5-ASC (mouse) (UniProt Q9EPB4); test: co-IP; HEK293T cells transfected with tagged plasmids, collected 36 h after transfection; IP buffer 50 mM Tris-HCl pH 7.4, 2 mM EDTA, 150 mM NaCl, 1% NP-40, 10% glycerol, 1 mM DTT; protein A/G agarose, 12 h at 4 °C; immunoblot
T4 sequence: T3 sequence

V5-ASC-CARD (mouse) = biological target: T5, V5-ASC-CARD (mouse) (UniProt Q9EPB4); test: as above
T5 sequence: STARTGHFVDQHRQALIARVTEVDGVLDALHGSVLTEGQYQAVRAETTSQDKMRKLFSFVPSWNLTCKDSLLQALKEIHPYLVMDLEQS

[4] = biological target: T6, WT NCF4, transduced into Ncf4^–/– BMDMs (mouse) (UniProt P97369); test: co-IP; Ncf4^–/– BMDMs transduced with control plasmid (PCDH), WT NCF4 or NCF4^MT; untreated, LPS (500 ng/mL, 4.5 h) or LPS plus ATP (5 mM, 15 min); co-IP of transduced NCF4, immunoblot for ASC and NOX2
T6 sequence: T1 sequence

- binding [1]: binds
- binding [2]: binds
- binding [3]: binds
Molecule: NCF2 (p67^phox), endogenous in mouse BMDMs (from UniProt O70145 1-525)

- binding (V5-ASC (mouse)): binds
- binding (V5-ASC-CARD (mouse)): binds
Molecule: NCF2, transfected in HEK293T cells (from UniProt O70145 1-525)

- binding [2]: binds
- binding [3]: binds
B1: NCF4 (p40^phox), endogenous in mouse BMDMs (protein, UniProt P97369 1-339)
chain: T1 sequence

- binding (V5-ASC (mouse)): binds
- binding (V5-ASC-CARD (mouse)): no binding
B2: FLAG-NCF4 (full length) (protein, UniProt P97369 1-339)
chain: T1 sequence

- binding [1]: binds
- binding [2]: binds
- binding [4]: binds
B3: NOX2 (gp91^phox), endogenous in mouse BMDMs (protein, UniProt Q61093 1-570)
chain: MGNWAVNEGLSIFVILVWLGLNVFLFINYYKVYDDGPKYNYTRKLLGSALALARAPAACLNFNCMLILLPVCRNLLSFLRGSSACCSTRIRRQLDRNLTFHKMVAWMIALHTAIHTIAHLFNVEWCVNARVGISDRYSIALSDIGDNENEEYLNFAREKIKNPEGGLYVAVTRLAGITGIVITLCLILIITSSTKTIRRSYFEVFWYTHHLFVIFFIGLAIHGAERIVRGQTAESLEEHNLDICADKIEEWGKIKECPVPKFAGNPPMTWKWIVGPMFLYLCERLVRFWRSQQKVVITKVVTHPFKTIELQMKKKGFKMEVGQYIFVKCPKVSKLEWHPFTLTSAPEEDFFSIHIRIVGDWTEGLFNACGCDKQEFQDAWKLPKIAVDGPFGTASEDVFSYEVVMLVGAGIGVTPFASILKSVWYKYCDNATSLKLKKIYFYWLCRDTHAFEWFADLLQLLETQMQERNNANFLSYNIYLTGWDESQANHFAVHHDEEKDVITGLKQKTLYGRPNWDNEFKTIASEHPNTTIGVFLCGPEALAETLSKQSISNSESGPRGVHFIFNKENF

- binding (V5-ASC (mouse)): binds
B4: NCF1, transfected in HEK293T cells (protein, UniProt Q09014 1-390)
chain: T2 sequence

- binding [1]: binds
- binding [3]: binds
B5: NCF1 (p47^phox), endogenous in mouse BMDMs (protein, UniProt Q09014 1-390)
chain: T2 sequence
